Data from PubChem BioAssay AID1508624 (National Center for Advancing Translational Sciences (NCATS), 2021).
The whole screen tested about 48,000 compounds, of which about 120 (0.25%) were called active. Inconclusive results (about 4%) are left out. Calls follow the shape of the dose curve; as a rule, active = well fitted activation curve with a large enough effect; inconclusive = small, poorly fitted or top-dose-only effect, or another doubt; inactive = no such curve, though single readings can be large or run the other way. This is one part of the list.

experiment: Primary qHTS for Identification of Small Molecule Activators of Huntingtin-Antisense Promoter Activity; conditions: HEK293 HTT-AS promoter firefly luciferase reporter, 24 h; series mostly up to 57.5 µM; activity change, positive = activation: at the top concentration; also: nearly all actives have a fitted effect of over 55% in size
How it was run: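 Quantitative HTS used concentration series of up to 57.5 uM final on HEK293 luciferase reporter cells, 24 h at 37 degrees C. Readout was Dual-Glo firefly luminescence.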

Activity change, positive = activation, inactive:
O=C(Cn1c(=O)oc2ccccc21)NCc1ccc(Cl)cc1 -3.89%, CCCCNC(=O)c1ccc(-c2nc(CS(=O)(=O)c3ccc(C)cc3)c(C)o2)cc1 -15.6%, Cc1ccc(N2CC(c3nnc(Cc4ccc(F)cc4Cl)o3)CC2=O)cc1 (stereo unspecified) -5.95%, CC1=C(c2ccc(Cl)cc2)S(=O)(=O)N=C1N1CCN(c2cccc(C)c2)C(C)C1 (stereo unspecified) -22.6%, CNC(=O)c1ccc(NC(=O)c2nsc3ccccc23)cc1 -59.6%, CCOC(=O)c1ccc(NC(=O)Cn2nnc(-c3ccc(C(F)(F)F)cc3)n2)cc1 -7.79%, COc1ccc2c(c1)c(N1CCCC1=O)c(C(=O)Nc1ccc(Cl)cc1C)n2C -11.6%, CCN1Cc2cccc(C(=O)Nc3ccc(F)cc3)c2C1=O -17.9%, CCOC(=O)c1ccc(OCC2c3cc(OC)c(OC)cc3CCN2C(=O)Cc2ccc(OC)c(OC)c2)cc1 (stereo unspecified) -17.1%, COC(=O)c1c(NC(=O)c2ccc(S(=O)(=O)N3CCCCC3)cc2)sc2c1CCN(C)C2 -10.8%, C[C@@H]1C[C@H]2[C@@H]3CCC4=CC(=O)C=C[C@]4(C)[C@@]3(F)[C@@H](O)C[C@]2(C)[C@@]1(O)C(=O)COC(=O)c1ccncc1 -14.2%, COc1ccc(CCNC(=O)CCCn2c(=O)c3ccccc3n(CC(=O)Nc3c(C)cc(C)cc3C)c2=O)cc1OC -13.4%, CCOC(=O)c1c(-c2ccc(C)cc2)csc1NC(=O)c1ccc(C(C)(C)C)cc1 -15.1%, CCc1ccc(NC(=O)CCS(=O)(=O)c2ccc3c(c2)oc(=O)n3C)cc1 -15.3% [at 11.5 µM, percent change from vehicle, -100% = no light], COC(=O)c1ccc(OC)c(Cn2c(=O)n(-c3cccc(Cl)c3)c(=O)c3c2c2cc(C)ccc2n3C)c1 -19.6%, Cc1ccc(-n2c(SCc3nc(-c4ccccc4C)no3)nnc2-c2ccncc2)cc1C -20.6%, CC1=C(C(N)=O)C(c2ccc(C(C)C)cc2)n2nc(SCc3ccccc3F)nc2N1 (stereo unspecified) -13.2%, Cc1cc(O)c(C)c(C)c1O -3.85%, CCn1cc2nc(SCc3cccc(C(F)(F)F)c3)n(CCc3ccccc3)c(=O)c2n1 1.05%, CCOc1ccc(NC(=O)Cn2cnc3nc4c(cc3c2=O)CCCC4)cc1 2.79%, COc1ccc(-c2cc(C)no2)cc1S(=O)(=O)Nc1cccc(C(F)(F)F)c1 -37.3%, Cc1c(CCNC(=O)c2ccc(C(F)(F)F)cc2)sc2nc(-c3ccc(F)cc3)nn12 -3.51%, COc1ccc(CCNC(=O)Cn2c(C)c3cnn(-c4ccccc4)c(=O)c3c2C)cc1OC -12.8%, COc1ccc(-c2[nH]c(-c3ccc(F)cc3)nc2SCC(=O)Nc2ccc(OC)c(OC)c2)cc1 -17.9%, Fc1ccc(-n2ncc3c(Nc4ccc(Oc5ccc(Cl)cc5)cc4)ncnc32)cc1 26.8%, CCOC(=O)[C@H](CCc1ccccc1)N[C@@H](C)C(=O)N1[C@@H](C(=O)O)C[C@H]2CCC[C@@H]21 -17.9%, COC(=O)c1ccccc1NC(=O)CN1C(=O)COc2ccccc21 -5.74%, Cc1ncc(CO)c2c1Oc1nc(-c3ccccc3F)nc(SCC(=O)N3CCCCC3)c1C2 -11.2%, COc1ccc(NC(=O)CSc2nc3c(c(=O)[nH]2)CN(Cc2ccccc2)CC3)cc1Cl 0%, CCc1ccc(NC(=O)Cn2c(=O)n(Cc3ccccc3)c(=O)c3oc4ccccc4c32)cc1 -4.55%, COc1cccc2cc(-c3nc(Cl)c4c5c(sc4n3)CC(C)CC5)c(=O)oc12 (stereo unspecified) -15.6%, Cc1ccc(S(=O)(=O)c2cn(C)c3cc(N4CCCC4)c(F)cc3c2=O)c(C)c1 -20.2%, CCOc1cc(C(=O)Nc2c(NC)c3ccccc3oc2=O)cc(OCC)c1OCC 9.04%, CCc1ccc(NC(=O)c2cnn(-c3c(C)cccc3C)c2C2CCNCC2)cc1 -5.86%, Cc1ccc(C)c(CN2C(=O)c3ccccc3Sc3ccc(C(=O)NC4CCCC4)cc32)c1 -26.5%, COc1ccc(NC(=O)c2c(C)oc3ccc(O)c(CN4CCCC(C)C4)c23)cc1Cl (stereo unspecified) -21.8%, Cc1ccc(-n2ncc(C(=O)N3CCc4ccccc4C3)c2C2CCN(C(=O)OC(C)(C)C)CC2)cc1C -3.44%, Cc1ccc(N2CCN(C(=O)CCc3c(C)nc4ncnn4c3C)CC2)c(C)c1 -30.9%, CCS(=O)(=O)c1ncc(Cl)c(C(=O)N(Cc2ccccc2)Cc2ccco2)n1 -93.5%, COc1ccccc1-c1noc(-c2ccc(NCCc3ccccc3)c([N+](=O)[O-])c2)n1 8.6%, CCn1cc(C(=O)NCCc2ccc(OC)c(OC)c2)c(=O)c2cc(S(=O)(=O)N3CCc4ccccc4C3)ccc21 -16%, COc1cccc(CNC(=O)CSc2ncc(S(=O)(=O)c3ccc(C)c(Cl)c3)c(=O)[nH]2)c1 3.19%, COc1ccc(-c2nc(CN3CCC(C(=O)NCCN(CC(C)C)CC(C)C)CC3)c(C)o2)cc1OC -18.8%, CCCn1c2ccccc2c2cnn(CC(=O)N(CCCOC(C)C)Cc3ccco3)c(=O)c21 -48%, COc1cc(Nc2ncnc3onc(-c4ccc(Cl)cc4)c23)cc(OC)c1 -33.6%, Cc1ccc(-n2c(=O)c3c(C)c(C)sc3n(CC(=O)c3ccc(Cl)cc3)c2=O)cc1C -20%, O=C(Cn1c(=O)n(Cc2ccc(F)cc2)c(=O)c2sc3ccccc3c21)NCc1ccccc1Cl -1.15%, COc1ccc(N2CCN(C(CNS(=O)(=O)c3c(C)cc(C)cc3C)c3ccco3)CC2)cc1 (stereo unspecified) -34.3%, N#Cc1c(C(F)(F)F)cc(-c2cccs2)nc1SCC(=O)Nc1ccc(Cl)cc1 -17%, Cc1cccc(N2CCN(S(=O)(=O)c3c(C)[nH]c(=O)[nH]c3=O)CC2)c1C -14.2%, O=C1CN(C(=O)c2ccccc2)C(c2ccc(F)cc2)c2cc(Br)ccc2N1 (stereo unspecified) -5.93%, CCc1cccc(C)c1NC(=O)Nc1csc2c1CCCC2 -32.7%, Cc1ccc(C)c(NC(=O)CSc2nncn3c2cc2sccc23)c1 -37.4%, COc1ccc2sc(N(Cc3cccnc3)C(=O)c3ccco3)nc2c1 -26.7%, CCOCCCNC(=O)c1c(NC(=O)c2cc(=O)c3cc(C)c(C)cc3o2)sc2c1CCC2 -2.19%, CCOC(=O)c1ccc(N2C(=O)c3[nH]nc(-c4ccc(OC)cc4)c3C2c2ccc(C)cc2)cc1 (stereo unspecified) -34.1%
